Data on one molecule can be found in patent publication US20220144930A1.

The target in the assay is VEGF-165, VEGFC and VEGFD mixture. Nature of the assay: cell-based or functional assay.

B1: humanized antibody VEGF-H988 (antibody, human IgG1, kappa)
heavy: QSVQESGPGLVKPSETLSLTCTVSGIDLSSYAISWVRQPPGKGLEYIGYIWNDLFTYYASWAKGRVTISVDTSKNQVDLKLSSVTAADTAVYFCARGTLGDYGGMDPWGQGTLVTVSS[sequence of human IgG1 constant region omitted]
light: ELQLTQSPSSLSASVGDRVTITCQSSKFLWQGRRLAWYQQKPGKVPKLLIYGASTLASGVPSRFKGSGSGTDFTLTISSLQPEDVATYYCAGYKSYDGDVVGFGGGTKVEIKRTVAAPSVFIFPPSDEQLKSGTASVVCLLNNFYPREAKVQWKVDNALQSGNSQESVTEQDSKDSTYSLSSTLTLSKADYEKHKVYACEVTHQGLSSPVTKSFNRGEC
On to B1, for which the Maximum neutralization rate Emax (%), VEGF165, VEGFC and VEGFD mixture, HUVEC proliferation turned out to be 86.1%.
